PubChem BioAssay AID485281 (National Center for Advancing Translational Sciences (NCATS), 2010)
About 260 (0.074%) of roughly 350,000 compounds were called active. The inconclusive results got no clear call from the source; some entries with a clear call stand among them for comparison. The call rests on the fitted dose curve; in most records, active means well fitted inhibition curve with a large enough effect; inconclusive means small, poorly fitted or top-dose-only effect; inactive means no such curve, though single readings can be large or run the other way. A potency beside an inconclusive call is a rough fit, not a confirmed value.

biological target: Ferritin light chain (Equus caballus) (UniProt P02791); test: qHTS Assay for Identification of Novel General Anesthetics; settings: apoferritin/1-aminoanthracene competitive binding, fluorescence; activity change, negative = displacement: at 77.5 µM (top of the series); further: nearly all actives have a fitted effect of over 20% in size
Sequence of UniProt P02791 (P02791 whole entry, looked up): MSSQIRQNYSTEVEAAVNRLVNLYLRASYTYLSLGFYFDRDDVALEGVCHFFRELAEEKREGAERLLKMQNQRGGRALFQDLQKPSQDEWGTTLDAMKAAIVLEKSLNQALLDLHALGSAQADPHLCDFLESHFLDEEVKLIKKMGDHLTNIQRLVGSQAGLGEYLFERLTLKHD
How it was run: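 Concentration-response curves derived by four-parameter Hill fitting of normalized fluorescence, where compounds displaced 1-AMA from 10 uM horse apoferritin following a brief 10 min room-temperature incubation; propofol titration acted as positive control.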
On the % scale 0 is the no-effect control and ±100 the full control effect; potency means the concentration at half of the fitted maximal effect; tags describe the fitted curve by direction and shape.

Structure (SMILES)	activity change, negative = displacement	Potency
Clc1ccccc1Cn1c(/C=C/c2ccco2)nc2ccccc21	inactive: -5.86%	–
O=C1NC2=C(C(=O)CCC2)C(c2ccc3ncccc3c2)N1 (centres undefined)	inactive: 4.18%	–
Cc1cc(C2N=C(N)Nc3nc4ccccc4n32)c(C)n1-c1ccccc1Cl (centres undefined)	–	inconclusive: 35.5 µM [inhibitor, partial curve]
C=CCc1cccc(/C=N/NC(=O)CNc2cccc3ccccc23)c1O	–	inconclusive: 50.1 µM [inhibitor, partial curve]
Cc1cc(C)c(NC(=O)C(C)c2cccc(C(=O)c3ccccc3)c2)c(C)c1 (centres undefined)	–	inconclusive: 3.55 µM [inhibitor, full curve, poor fit]
COc1ccccc1N1CCN(C(=O)c2ccc(S(=O)(=O)N3CCCCCC3)cc2)CC1	–	inconclusive: 39.8 µM [inhibitor, partial curve]
CCc1ccc(-c2cc(C(=O)N/N=C/c3ccco3)[nH]n2)cc1	–	inconclusive: 22.4 µM [inhibitor, partial curve]
CCOc1ccc2[nH]cc(S(=O)(=O)c3ccc(Cl)cc3)c(=O)c2c1	–	inconclusive: 35.5 µM [inhibitor, single point]
C/C(=N/NC(=O)CNC(=O)c1cccnc1)c1ccc(Cl)c(Cl)c1	–	inconclusive: 39.8 µM [inhibitor, single point]
Cc1oc2c(Cl)c(Cl)c(O)c(CN(C)C)c2c1C(=O)c1ccc(Cl)cc1	–	inconclusive: 39.8 µM [inhibitor, single point]
Cc1ccc(OCc2ccc([N+](=O)[O-])cc2)c([N+](=O)[O-])n1	inactive: -8.63%	–
CCOc1ccc(N(Cc2ccccc2)C(=O)c2nc(S(C)(=O)=O)ncc2Cl)cc1	–	inconclusive: 44.7 µM [inhibitor, single point]
Cc1[nH]c2ccccc2c1C(=O)/C=C/c1ccccc1	–	inconclusive: 35.5 µM [inhibitor, partial curve]
O=C(CSc1n[nH]c(-c2ccccc2)n1)Nc1ccc(Br)cn1	–	inconclusive: 35.5 µM [inhibitor, partial curve]
COc1cc(NC(=O)CCCOc2cc(=O)n(C)c3ccccc23)cc(OC)c1OC	inactive: 1.13%	–
CN(C)C(=O)NC1CCCCCCC1	inactive: -11.1%	–
O=C(Nc1ccc(S(=O)(=O)N2CCOCC2)cc1)c1cccc([N+](=O)[O-])c1	–	inconclusive: 31.6 µM [inhibitor, single point]
Cc1sc(-n2c(C)ccc2C)c(C#N)c1C	–	inconclusive: 12.6 µM [inhibitor, partial curve]
COc1cccc(N2CCN(Cc3ncc(-c4ccccc4)o3)CC2)c1	inactive: -2.46%	–
COc1cccc(NC(=O)N2CCN(c3cccc(C)c3)C(C)C2)c1 (centres undefined)	–	inconclusive: 25.1 µM [inhibitor, partial curve]
CCOC(=O)c1cnc(-n2nc(C)cc2C)nc1NC1CCCCC1	–	inconclusive: 35.5 µM [inhibitor, partial curve]
Cc1nc(-c2ccc(C)c(N3CCN(C(=O)Nc4cccc(Cl)c4C)CC3)c2)no1	inactive: -1.99%	–
CC(=O)c1ccc(N2C(=O)C3C(C2=O)C(C(=O)c2ccc(Cl)cc2)N2CCCC32)cc1 (centres undefined)	–	inconclusive: 17.8 µM [inhibitor, partial curve]

Structure (SMILES)	activity change, negative = displacement	Potency
CC(C)OC(=O)CC(=O)CSc1nc2c(c(-c3cccs3)c1C#N)CCC2	–	inconclusive: 56.2 µM [inhibitor, single point]
CC1(C)c2ssc(=S)c2-c2ccccc2N1C(=O)c1ccco1	–	inconclusive: 11.2 µM [inhibitor, partial curve]
Cc1ccc(NC(=O)c2ccccc2Br)c(C(=O)c2ccccc2)c1	–	inconclusive: 10 µM [inhibitor, partial curve]
Nc1nc(-c2ccco2)nn1S(=O)(=O)c1ccccc1	inactive: -6.81%	–
CCCCCCCC1(C)NC(=O)N(CC(=O)Nc2cc(C)on2)C1=O (centres undefined)	–	inconclusive: 22.4 µM [inhibitor, single point]
COc1ccc(Nc2sc(C(=O)c3ccc(Cl)cc3)c(N)c2C(=O)Nc2ccccc2OC)cc1	–	inconclusive: 25.1 µM [inhibitor, partial curve]
CCSc1cnc(-c2ccccc2)n1CC	–	inconclusive: 31.6 µM [inhibitor, partial curve]
COc1ccc(NC(=O)NNC(=O)C(C)Oc2ccc(C(C)C)cc2)c(OC)c1 (centres undefined)	–	inconclusive: 31.6 µM [inhibitor, partial curve]
CC1CCCN(C(=O)CSc2nc3ncccc3[nH]2)C1 (centres undefined)	inactive: -19.8%	–
C/C(=N\NC(=O)CNC(=O)c1ccccc1F)c1ccco1	–	inconclusive: 56.2 µM [inhibitor, single point]
CN(Cc1ccccc1)C(=O)c1ccc(Cl)c([N+](=O)[O-])c1	–	inconclusive: 50.1 µM [inhibitor, single point]
CC(c1ccco1)N(Cc1ccco1)C(=O)Nc1ccccc1 (centres undefined)	–	inconclusive: 50.1 µM [inhibitor, partial curve]
CC(C)Sc1snnc1-c1ccccc1	–	inconclusive: 31.6 µM [inhibitor, partial curve]
CN(C(=O)C(Cl)Cl)C1CC2C=CC1C2 (centres undefined)	–	inconclusive: 31.6 µM [inhibitor, partial curve, poor fit]
Cc1ccc(CNC(=O)Cc2ccc(-n3cccc3)cc2)cc1	inactive: -2.51%	–
Oc1ccc(-c2nccc(-c3ccc(Cl)cc3Cl)n2)cc1	inactive: -7.36%	–
C=CCOc1ccc(Br)cc1/C=C1\NC(=S)N(C(C)=O)C1=O	–	inconclusive: 50.1 µM [inhibitor, single point]
O=C(Cn1nnc(-c2cccc(C(F)(F)F)c2)n1)NC(=O)NCc1ccco1	–	inconclusive: 14.1 µM [inhibitor, partial curve]
Cc1ccc(S(=O)(=O)NCC(=O)N/N=C/c2ccc(Cl)cc2)cc1	–	inconclusive: 39.8 µM [inhibitor, single point]
CSc1nc2ccc(NC(=O)C3CC(=O)N(Cc4ccccc4)C3)cc2s1 (centres undefined)	–	inconclusive: 39.8 µM [inhibitor, partial curve]
Cn1ccs/c1=N\C(=O)Nc1cccc(Cl)c1	inactive: -8.39%	–
CCc1ccccc1NC(=O)c1noc2c1CC(C(C)(C)C)CC2 (centres undefined)	–	inconclusive: 17.8 µM [inhibitor, partial curve]
Cc1ccc(-c2nc(NCc3ccco3)n(S(C)(=O)=O)n2)cc1	inactive: -10.7%	–

Structure (SMILES)	activity change, negative = displacement	Potency
CCOC(=O)c1cnn(-c2ccccc2)c1-n1cccc1C(=O)C(=O)Nc1ccc(F)cc1	–	inconclusive: 8.91 µM [inhibitor, partial curve]
CC12CC3CC(C)(C1)CC(C(=O)NCc1ccco1)(C3)C2	–	inconclusive: 31.6 µM [inhibitor, partial curve]
Cc1ccc(NC(=O)CSc2ccc3c(c2)OCCO3)c(O)c1	–	inconclusive: 25.1 µM [inhibitor, partial curve]
COc1cccc(NC(=O)C2CCCN(S(=O)(=O)c3ccc(-n4cnnn4)cc3)C2)c1 (centres undefined)	–	inconclusive: 28.2 µM [inhibitor, partial curve]
Cc1cc(C)c(C(N)=O)c(SCC(=O)c2ccc(Cl)cc2)n1	–	inconclusive: 31.6 µM [inhibitor, partial curve]
O=C(CSc1nc(O)c(Cc2ccccc2)c(=O)[nH]1)Nc1nnc(SCc2ccccc2)s1	–	inconclusive: 39.8 µM [inhibitor, partial curve]
C/C(N)=C(/C#N)C(=O)CSc1nnc(Nc2c(C)cccc2C)s1	–	inconclusive: 35.5 µM [inhibitor, single point]
O=C(Nc1cccc(C(F)(F)F)c1)/C(=C/c1ccco1)NC(=O)c1cccs1	–	inconclusive: 15.8 µM [inhibitor, partial curve]
CCCC(c1nnnn1CCOC)N(Cc1cc2cc(C)c(C)cc2[nH]c1=O)CC1CCCO1 (centres undefined)	inactive: 32.2%	–
CCOC(=O)N1CCN(c2nc(SC)nc3sc4c(c23)CC(C)(C)OC4)CC1	inactive: -3.59%	–
O=C(OCC#CCSc1nnc(-c2cccc3ccccc23)o1)c1ccco1	inactive: -12.4%	–
CCCC(=O)Nc1ccc(C(=O)N/N=C/c2ccc([N+](=O)[O-])o2)cc1	inactive: 4.59%	–
Cc1ccc(C(=O)Nc2cccc(C(F)(F)F)c2)cc1NC(=O)c1nccnc1N	inactive: -8.67%	–
CCc1ccc(NC(=O)CS(=O)CC(=O)Nc2ccc(F)cc2F)cc1 (centres undefined)	–	inconclusive: 5.62 µM [inhibitor, full curve]
O=C(OCc1cnc(Cl)s1)c1c(F)cccc1F	–	inconclusive: 25.1 µM [inhibitor, partial curve]
CCC(=O)N1c2ccc(S(=O)(=O)N3CCN(CC)CC3)cc2CC1C (centres undefined)	inactive: -8.53%	–
CCCn1c(SCC(=O)NCc2ccccc2)nnc1-c1ccncc1	inactive: -1.07%	–
O=C(N/N=C/c1ccccc1F)c1ccccc1OCc1ccccc1	–	inconclusive: 31.6 µM [inhibitor, single point]
Cc1ccc(OCCNC(=O)c2cccc(Oc3ccc(C(F)(F)F)cc3[N+](=O)[O-])c2)cc1	–	inconclusive: 5.62 µM [inhibitor, single point]
CC(C)c1ccc(C2CC(=O)N3CN(Cc4ccco4)CSC3=C2C#N)cc1 (centres undefined)	–	inconclusive: 35.5 µM [inhibitor, partial curve]
Cn1cccc1/C=C1/SC(=O)N(CC(=O)N2CCCC2)C1=O	–	inconclusive: 31.6 µM [inhibitor, single point]
Cc1cccc(NC(=S)N2CCCCCC2)c1C	–	inconclusive: 22.4 µM [inhibitor, partial curve]
Cc1ccc(/C=N/NC(=O)c2nnn(-c3nonc3N)c2CNc2ccccc2)cc1	–	inconclusive: 22.4 µM [inhibitor, partial curve]
